Experimental data reported in PubChem BioAssay AID504832 (National Center for Advancing Translational Sciences (NCATS), 2011).
Hit rate of the full screen: of about 310,000 compounds, about 18,000 (5.8%) were called active. Inconclusive means that the source gave no clear call. Such entries were picked first, then a sample of the others. Calls come from the whole dose curve; as a rule, active = well fitted inhibition curve with a large enough effect; inconclusive = small, poorly fitted or top-dose-only effect, or another doubt; inactive = no such curve, though single readings can be large or run the other way. Potencies of inconclusive entries are left out as doubtful fits.

assay: Primary qHTS for delayed death inhibitors of the malarial parasite plastid, 48 hour incubation; conditions: P. falciparum luciferase growth in erythrocytes; series mostly up to 28.7 µM
Summary of the method: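 Firefly luciferase activity from engineered P. falciparum reports growth; inhibitors lower the luminescent signal. Cultures contained 2% hematocrit erythrocytes at 0.1% final parasitemia.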
Potency is the fitted concentration of half-maximal effect; tags give direction and shape of the fitted curve.

Row | Structure (SMILES) | Potency
1 | O=C(NCCCCc1ccccc1)Nc1ccc(F)cc1 | inconclusive [inhibitor, single point]
2 | CCC1CCCCN1c1nc(-c2cccc(OC)c2O)nc2ccccc12 (stereo unspecified) | inconclusive [inhibitor, single point]
3 | COc1ccc(/C=N/NC(=O)CC(=O)N/N=C/c2ccc(OC)cc2)cc1 | inconclusive [inhibitor, partial curve, poor fit]
4 | O=C(Nc1ccc(Cl)c(Cl)c1)Nc1ccc(N2CCCC2)c(S(=O)(=O)Nc2ccccc2Cl)c1 | active: 13.1 µM
5 | CCOC(=O)C1(c2ccccc2)CCN(CCC(=O)Nc2ccccc2OC)CC1 | inconclusive [inhibitor, partial curve, poor fit]
6 | Cc1ccc(C(=O)NCC(=O)Nc2ccc3c(c2)OCCO3)cc1 | inactive
7 | Cc1ccc(NC(=O)C2CCN(S(=O)(=O)c3c(C)noc3/C=C/N(C)C)CC2)cc1 | inconclusive [inhibitor, single point]
8 | Cc1c(C)n(Cc2ccccc2)c2ccc(C(=O)OCCN(C)C)cc12 | inactive
9 | O=C(CSc1nncc2ccccc12)Nc1ccccc1 | inconclusive [inhibitor, partial curve, poor fit]
10 | CC1CCCCN1CC(=O)NC(c1ccccc1)c1ccccc1 (stereo unspecified) | inconclusive [inhibitor, single point]
11 | O=C1C2=C(C(=O)c3ccccc31)C1O[C@](CCCCN3C(=O)c4ccccc4C3=O)(Cc3c1ccc1ccccc31)O2 | inconclusive [inhibitor, partial curve, poor fit]
12 | Cc1nn(-c2ccccc2)c(Cl)c1C(=O)OCC(=O)NCCc1ccc(S(N)(=O)=O)cc1 | inconclusive [inhibitor, partial curve]
13 | Cc1[nH]c2ccc3ncccc3c2c1C | inactive
14 | COc1cccc(C(c2c(C)[nH]n(-c3ccccc3)c2=O)c2c(C)[nH]n(-c3ccccc3)c2=O)c1O | inconclusive [inhibitor, full curve, poor fit]
15 | O=C(C1CCN(S(=O)(=O)c2cccc3nonc23)CC1)N1CCCCC1 | inactive
16 | COc1ccc(Cl)cc1S(=O)(=O)N1CCCC(C(=O)NCc2ccccn2)C1 (stereo unspecified) | inconclusive [inhibitor, single point]
17 | Cc1ccc2nc(C)cc(C(=O)Nc3nccs3)c2c1 | inactive
18 | COc1ccccc1N1CCN(S(=O)(=O)CCNC(=O)c2ccc(OC(C)C)cc2)CC1 | inconclusive [inhibitor, single point]
19 | CCC(C)Nc1nc2c(c(=O)[nH]c(=O)n2C)n1CCC(C)C (stereo unspecified) | inconclusive [inhibitor, single point]
20 | Cc1c(C)c2cc(Cl)c(O)c(CN3CCCC(C)C3)c2oc1=O (stereo unspecified) | inconclusive [inhibitor, partial curve]
21 | O=C(Cc1ccc(Cl)c(Cl)c1)Nc1cccc(S(=O)(=O)N2CCOCC2)c1 | inconclusive [inhibitor, single point]
22 | COc1ccc(C(=O)Nc2ccccc2C(=O)NC(Cc2ccc(O)cc2)C(=O)NNC(=O)c2ccccc2)cc1 (stereo unspecified) | active: 10.4 µM

Row | Structure (SMILES) | Potency
23 | CCOC(=O)c1c(C)c(C(=O)Nc2ccccc2)c(C)n1CC | inconclusive [inhibitor, single point]
24 | Cn1c(=O)oc2cc(S(=O)(=O)N3CCN(c4ccccc4F)CC3)ccc21 | inconclusive [inhibitor, partial curve, poor fit]
25 | COc1ccccc1N1C(=O)C=C(Sc2nc(C)cc(C)n2)C1=O | inconclusive [inhibitor, single point]
26 | CCCC[C@H](O)c1ccccc1 | inactive
27 | Cc1csc(NC(=O)CSc2nnc(-c3ccccn3)n2-c2ccc(C)c(C)c2)n1 | inconclusive [inhibitor, partial curve, poor fit]
28 | Nc1nc(-c2ccccn2)nc(N)c1Cc1c(F)cccc1Cl | active: 11.7 µM
29 | O=C(Nc1cccc2ccccc12)/C(=C/c1ccc([N+](=O)[O-])cc1)NC(=O)c1ccccc1 | inconclusive [inhibitor, partial curve, poor fit]
30 | CC1Cc2ccccc2N1C(=O)CSc1nc2c(c(=O)n(C)c(=O)n2C)n1Cc1ccccc1 (stereo unspecified) | active: 5.86 µM
31 | CCC(=O)Nc1nnc(SCC(=O)NC2CCCC2)s1 | inactive
32 | O=C1c2ccccc2C(=O)N1CC1=NCCc2ccccc21 | inconclusive [inhibitor, partial curve]
33 | Cc1cc(N)n(-c2nc(-c3cccnc3)nc3ccccc23)n1 | inconclusive [inhibitor, single point]
34 | CCOC(=O)c1cccc2c1-c1ccccc1/C2=N/O | inconclusive [inhibitor, partial curve]
35 | CC(C)(C)OC(=O)N1CCC[C@H]1c1nnc(SCc2c(F)cccc2Cl)o1 | inconclusive [inhibitor, single point]
36 | CCN(CC)S(=O)(=O)c1ccc2c(c1)c(=O)c(C(=O)NCc1cccs1)cn2C | inconclusive [inhibitor, single point]
37 | Cc1ccccc1-n1cc(CNCc2c(C(=O)N(C)C)nc3ccc(Cl)cn23)cn1 | inactive
38 | Cc1ccc(NS(=O)(=O)c2cc(NC(=O)c3cc4c(s3)CCCC4)ccc2C)c(C)c1 | inconclusive [inhibitor, single point]
39 | CC1=NN(c2ccccc2)C(=O)C1(C)C | inactive
40 | CCOc1ccc2nc(SC3CC(=O)N(c4ccc(C)cc4)C3=O)sc2c1 (stereo unspecified) | inactive
41 | Cc1ccc(C)c(NC(=O)C2C3C=CC(O3)C2C(=O)O)c1 (stereo unspecified) | inactive
42 | COC(=O)c1c(-c2ccc(Br)cc2)csc1NC(=O)Cc1ccc(OC)c(OC)c1 | inconclusive [inhibitor, single point]
43 | O=C(NCc1ccccc1)C(Cc1ccccc1)NS(=O)(=O)c1cccc2nsnc12 (stereo unspecified) | inconclusive [inhibitor, partial curve, poor fit]
44 | Cc1ccc(N(C(=O)c2cnccn2)C(C(=O)NC2CCCCC2)c2ccc(O)cc2)cc1 (stereo unspecified) | inconclusive [inhibitor, single point]

Row | Structure (SMILES) | Potency
45 | O=C(NCc1cccnc1)c1ccc(COc2ccccc2Br)o1 | inconclusive [inhibitor, partial curve, poor fit]
46 | CCOc1cc(/C=C2\N=C(C)OC2=O)cc(Br)c1OCC(=O)OC | inconclusive [inhibitor, single point]
47 | O=C(CCCn1c(=S)[nH]c2ccccc2c1=O)N1CCN(c2cccc(Cl)c2)CC1 | inconclusive [inhibitor, single point]
48 | CCc1cccc(NC(=S)Nc2cccc3ccccc23)c1 | inconclusive [inhibitor, single point]
49 | Cc1cc(C)n(/N=C/c2cc(Cl)cc(Cl)c2O)c(=O)c1 | inconclusive [inhibitor, single point]
50 | CC(=O)Nc1c2c(nn1-c1cccc(C)c1)CSC2 | inactive
51 | COc1ccc(S(=O)(=O)N(NC2=NS(=O)(=O)c3ccccc32)C(=O)C(C)C)cc1 | inconclusive [inhibitor, single point]
52 | Cc1ccc(CNC(=O)CN(C(=O)N2CCN(C)CC2)S(=O)(=O)c2ccc(C)cc2)cc1 | inactive
53 | N#Cc1ccsc1NC(=O)C1CCCN1S(=O)(=O)c1cccs1 (stereo unspecified) | inconclusive [inhibitor, single point]
54 | CN(C)c1nc(Cl)nc(N(C#N)CCOc2ccccc2)n1 | inconclusive [inhibitor, partial curve, poor fit]
55 | O=C(NCC1CCCO1)c1sc(=S)n2c1[nH]c(=O)c1ccc(C(=O)N3CCCCC3)cc12 (stereo unspecified) | active: 10.4 µM
56 | CCn1c2ccccc2c2cc(/C=N/NC(=O)c3cc(O)cc(O)c3)ccc21 | inconclusive [inhibitor, partial curve, poor fit]
57 | COc1ccc(S(=O)(=O)N2CCCCC2)cc1NC(=O)Cn1cnc2ccccc2c1=O | inconclusive [inhibitor, single point]
58 | CCCOc1ccc(/C=C/C(=O)NC2CCCCC2)cc1 | inconclusive [inhibitor, single point]
59 | O=C(Cc1cccs1)Nc1ccccc1-c1nc2ccccc2[nH]1 | inconclusive [inhibitor, single point]
60 | CCOc1ccc(C(=O)Nc2ccc(NC(=O)c3ccccc3)c(C)c2)cc1[N+](=O)[O-] | inactive
61 | Cc1ccc(S(=O)(=O)N2CCOC2CNC(=O)C(=O)NCc2ccco2)cc1 (stereo unspecified) | inactive
62 | COc1ccc(CCCc2nc3ccccc3[nH]2)cc1 | inconclusive [inhibitor, partial curve]
63 | CCCn1c(SCC(=O)NC(=O)NC(C)(C)C)n[nH]c1=O | inactive
64 | COC(=O)[C@]1(C)C[C@H]1[C@H](NP(=O)(c1ccccc1)c1ccccc1)c1ccccc1 | inconclusive [inhibitor, partial curve]
65 | Cc1cc(C)n(CC(O)Cn2c(C)c(C)c3ccccc32)n1 (stereo unspecified) | inconclusive [inhibitor, single point]
66 | COc1ccc(NC(=O)CSc2nnc(NC(=O)c3ccccc3C(=O)O)s2)cc1 | inconclusive [inhibitor, partial curve, poor fit]
